Some of the results follow. The full chains were built here from the parent and the listed change. Values near 0.05 are background.
B1: TEV protease; numbered along this chain (parent)
chain: MGESLFKGPRDYNPISSSICHLTNESDGHTTSLYGIGFGPFIITNKHLFRRNNGTLVVQSLHGVFKVKDTTTLQQHLVDGRDMIIIRMPKDFPPFPQKLKFREPQREERICLVTTNFQTKSMSSMVSDTSCTFPSGDGIFWKHWIQTKDGQCGSPLVSTRDGFIVGIHSASNFTNTNNYFTSVPKNFMELLTNQEAQQWVSGWRLNADSVLWGGHKVFMVKPEEPFQPVKEATQL

Variants of: B1
Experiment: raw area under fraction-flipped curve 0-4 h after induction (AUC4h, not background-subtracted), DNA-recorder readout of cleavage of the substrate (dimensionless); higher = more cleavage of the substrate by the protease variant
Settings: temperature: 34 °C; time window: 0-4 h after rhamnose induction
Description: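 In vivo DNA recorder in E. coli TOP10(DE3) ΔrhaA at 34 °C. Each TEVp single-site mutant (parent TEVp 0) is paired with a single-site variant of the 7-mer TEVs (canonical ENLYFQ|S). The substrate sits between flexible linkers in a Bxb1-sfGFP-TEVs-SsrA fusion, so cleavage stabilises Bxb1 and speeds flipping of a recombination array, read by NGS. The value is the raw area under the fraction-flipped curve over 0-4 h after rhamnose induction (AUC4h), with ≥20 reads per time point. It is not background-subtracted; inactive controls average about 0.047.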
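Also: Bxb1 expression induced with 0.2% (w/v) L-rhamnose at OD600 near 0.5, cultures sampled hourly, flipped fraction per protease–substrate barcode pair counted by paired-end Illumina sequencing.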

Variant	area with substrate ENLYFCS	area with substrate ENLYFES	area with substrate ENLYFFS	area with substrate ENLYFHS	area with substrate ENLYFIS	area with substrate ENLYFKS	area with substrate ENLYFMS	area with substrate ENLYFPS	area with substrate ENLYFRS	area with substrate ENLYFTS	area with substrate ENLYFWS	area with substrate ENLYFGS	area with substrate ENLYFNS	area with substrate ENLYFVS	area with substrate ENLYFDS	area with substrate ENLYFSS	area with substrate ENLYFYS	area with substrate ENLYFLS
I85D	0.0462	0.0604	0.0418	0.0621	0.0409	0.0523	0.057	0.0206	0.0593	0.0402	0.034	–	–	–	–	–	–	–
T114V	0.0679	0.0491	0.0556	–	0.0579	0.0652	0.0631	0.0512	0.0528	0.0472	–	0.0676	0.0389	0.0738	–	–	–	–
Y34F	0.0612	0.0354	–	–	0.0607	0.0576	0.0834	0.0482	0.0734	0.0579	–	–	0.0611	–	0.0615	0.0587	0.0869	–
Y34Q	0.0547	–	–	0.0345	–	0.0736	0.0328	0.0786	–	–	0.0589	–	–	–	–	–	0.067	–
Q151P	0.0598	–	–	–	0.0599	0.0602	0.0417	0.0591	–	0.0607	–	–	0.0536	–	0.0666	–	0.0603	–
K120Q	0.0615	0.05	0.0778	0.0702	0.0484	0.0698	0.0734	0.0651	0.05	–	0.0473	–	0.0546	–	0.0581	0.0509	–	–
M83I	0.0516	–	0.0586	0.0645	0.0522	0.0407	0.0648	–	0.0603	–	0.0609	–	–	0.0591	–	–	–	–
K98E	0.0746	–	0.0682	–	0.0464	–	–	0.0739	–	0.0595	0.0644	–	0.0674	–	0.0594	–	0.0533	–
R102D	0.0534	0.04	0.0489	0.0286	–	–	0.0429	0.0554	0.0813	0.0552	–	–	0.0485	–	0.0317	0.0545	–	0.0378
F140A	0.0662	0.0378	–	–	0.0668	–	–	0.0563	0.0637	–	–	–	0.0626	–	–	–	0.0611	–
I164Y	0.0491	0.0606	0.0695	–	0.0572	0.0461	0.0509	0.0545	0.0559	0.0495	–	0.056	0.0472	0.0571	0.0424	–	0.0491	–
V183E	0.067	0.0432	0.0596	–	0.057	–	0.0412	0.041	–	0.0334	–	–	0.0622	–	–	–	–	0.0544
H76S	0.055	0.0625	0.042	–	0.0615	0.0838	0.0589	0.06	0.0493	0.0609	0.0523	0.0613	0.0534	–	–	0.0532	0.0451	0.0563
T181A	0.0684	0.0753	0.0734	0.0596	0.0595	–	–	0.0509	–	–	0.0447	0.0483	–	–	–	0.055	–	–
N175P	0.0664	0.0524	0.0727	–	0.049	0.151	–	0.0588	0.0599	–	0.0656	–	0.0649	0.053	–	0.0696	0.0751	–
N175M	0.0604	0.0659	–	0.0758	0.0577	0.0609	0.0755	0.0568	0.087	0.0626	0.0468	0.0831	–	–	0.0568	–	0.0574	–
N175Y	0.0571	–	0.067	0.0581	0.0763	0.0762	0.0849	–	–	0.0601	0.0549	–	0.0641	0.0663	–	0.0599	0.0461	–
N186E	0.0618	0.0666	0.0715	–	–	0.0513	–	0.0537	0.0843	0.0814	–	–	–	–	–	–	0.0798	–
T132R	0.0618	0.0548	–	0.055	0.0262	–	–	0.0489	0.0509	–	0.0537	–	–	–	–	–	–	0.0528
T44Y	0.0352	0.053	0.0511	0.0556	0.0291	0.0357	–	0.0416	0.0374	0.0401	0.0553	0.0437	0.0443	0.0355	0.0422	0.0459	–	–
T44C	0.069	0.0768	0.0701	0.0587	0.0534	0.0734	0.0509	0.0706	0.0554	0.0687	0.0535	0.0713	–	–	–	0.0539	0.0557	–
H47S	0.0518	0.0523	–	0.062	0.0586	0.0695	0.0707	0.0588	0.0631	0.0635	0.0595	–	0.0651	0.0531	0.0657	–	0.0607	0.0623
D69C	0.0583	0.0548	0.0369	0.07	0.0487	0.0643	–	–	0.0655	0.0499	0.0623	0.0603	0.0439	–	0.0511	–	0.0605	0.0539
E108I	0.072	0.0539	0.0657	–	0.072	0.0391	0.0782	0.0534	–	0.0542	0.0418	–	0.062	0.058	0.0539	0.0637	0.018	0.0517
E108S	0.0508	0.0606	0.0602	0.0481	0.0409	0.0674	0.0539	0.0441	–	–	–	–	–	0.0551	–	0.0641	0.0405	–
I19C	0.0455	0.0635	0.0641	0.0444	0.0543	0.0558	–	0.0639	0.0477	0.0457	0.056	–	0.0716	0.0468	0.034	–	0.0496	–
E195F	0.0604	0.0561	0.0858	0.0642	0.0571	0.0633	0.0564	0.0463	–	0.0782	0.0662	–	0.0621	0.0462	0.0575	–	0.0481	0.0706
F173I	0.0694	0.0648	0.0519	0.0559	0.0557	0.0634	0.0622	0.0564	0.06	0.0587	0.0465	–	0.0752	0.0634	–	–	–	0.0725
M88I	0.0579	0.0652	0.0563	0.0571	–	0.0563	0.0699	0.068	–	0.0638	–	0.0523	0.0328	–	–	–	0.0711	0.0764

From the supplement of paper PMC12217912
